{"source": "PubChem BioAssay AID463173", "about": "(ICCB-Longwood Screening Facility, Harvard Medical School, 2010)", "note": "Hit rate of the full screen: of about 52,000 compounds, about 4,300 (8.3%) were called active. Rule as the data show it: active = survival mostly below about 52% (no sharp cut-off); inactive = mostly above about 56%. The list shows a part of the results."}
{"system": "DeltatarO mutant", "test": "growth inhibition of S. aureus wild type versus tarO mutant, primary screen, teichoic acid synthesis inhibitors, RN4220, OD600 (AID 463173)", "conditions": "OD600, 18 h, active compounds read low, screened at 18.75 µg/mL (by protocol)"}
{"smiles": "CCC1CCCCN1C(=O)CSc1nc(-c2ccc(OC)c(OC)c2)cc(C(F)(F)F)n1", "note": "(configuration not stated)", "survival": "active: -3%"}
{"smiles": "O=C1c2ccccc2C(=O)C1(O)N1CCOCC1", "survival": "inactive: 85%"}
{"smiles": "CC1=C(C(=O)OC2CCCCCC2)C(c2cccc(F)c2F)CC(=O)N1", "note": "(configuration not stated)", "survival": "inactive: 128%"}
{"smiles": "Cc1cccc(NC(=O)c2sc3nc4c(cc3c2N)CN(C(C)C)CC4)c1", "survival": "inactive: 80%"}
{"smiles": "CCc1ccc(S(=O)(=O)Nc2ccc3[nH]c(=O)sc3c2)cc1", "survival": "inactive: 75%"}
{"smiles": "CCOc1ccc2nc(N3CCCC(C(=O)Nc4ccc(OC)c(Cl)c4)C3)sc2c1", "note": "(configuration not stated)", "survival": "inactive: 93%"}
{"smiles": "CN(C)S(=O)(=O)c1ccc2c(c1)N(CC(=O)Nc1ccc(F)cc1)C(=O)CS2", "survival": "inactive: 69%"}
{"smiles": "NC(=O)C1CCN(C(=O)CN2CCc3ccccc3C2)CC1", "survival": "inactive: 95%"}
{"smiles": "COc1cc(NC(=O)CCCc2nnc3n(CC(C)C)c(=O)c4sccc4n23)cc(OC)c1", "survival": "inactive: 100%"}
{"smiles": "CCOC(=O)c1cc2c(=O)n3ccccc3nc2n(Cc2ccco2)c1=NC(=O)c1cccc(F)c1", "survival": "active: 17%"}
{"smiles": "Fc1ccc(Nc2nc(SCc3ccccc3F)nc3ccccc23)cc1", "survival": "inactive: 55%"}
{"smiles": "Cc1ccc(Cn2c(SCC(=O)NCc3ccccc3Cl)nc3ccsc3c2=O)cc1", "survival": "active: -5%"}
{"smiles": "Cc1cc([N+](=O)[O-])ccc1NC(c1nnc(-c2ccccc2)o1)c1ccccc1F", "note": "(configuration not stated)", "survival": "inactive: 82%"}
{"smiles": "CC(=O)N1CCc2cc(Br)cc(S(=O)(=O)CCC(=O)N3CCN(c4ccccc4)CC3)c21", "survival": "active: 53%"}
{"smiles": "Cc1nc2cc(C(=O)NC3CCCCCC3)ccc2n1-c1ccc(Br)cc1", "survival": "inactive: 55%"}
{"smiles": "CC(C)N(C(=O)CSc1nnc(Cc2csc(Nc3ccccc3)n2)o1)C(C)C", "survival": "inactive: 69%"}
{"smiles": "O=C(CSc1nnc(-c2ccncc2)n1Cc1ccco1)OC1CCCCC1", "survival": "inactive: 89%"}
{"smiles": "CN(C)c1ccc(CNC(=O)c2ccc(NC(=O)N3CCCCc4ccccc43)cc2)cc1", "survival": "inactive: 135%"}
{"smiles": "N#Cc1c(-n2ncnc2-c2cccc(Br)c2)sc2c1CCCCC2", "survival": "active: 23%"}
{"smiles": "COc1ccc(-n2c(SCC(=O)Nc3cccc(C)c3C)nc3c([nH]c4ccccc43)c2=O)cc1", "survival": "inactive: 101%"}
{"smiles": "Cc1ccc2oc(=O)c3cc(C(=O)N4CCN(c5ccccc5F)CC4)sc3c2c1", "survival": "inactive: 62%"}
{"smiles": "CC(C)(C)c1ccc(Oc2ccc(NC(=O)CCC(=O)OCC(=O)c3ccccc3)cc2)cc1", "survival": "inactive: 72%"}
{"smiles": "CCOc1ccc(CCNC(=O)CN2C(=O)COc3ccc(S(=O)(=O)N4CCCCCC4)cc32)cc1", "survival": "inactive: 57%"}
{"smiles": "CC(=O)c1cccc(NC(=O)Cn2c(=O)oc3cc(S(=O)(=O)N4CCCC4)ccc32)c1", "survival": "inactive: 138%"}
{"smiles": "CCC(=O)C1=C(c2ccc(OC)c(OC)c2)N(C(=O)CC)n2c(CC)nnc2S1", "survival": "inactive: 81%"}
{"smiles": "Cc1ccc(NC(=O)c2c(NC(=O)Cc3ccccc3)sc3c2CCCC3)cc1", "survival": "active: 28%"}
{"smiles": "CN(C)c1ccc(-c2nnc3n(Cc4ccccc4)c(=O)c4ccccc4n23)cc1", "survival": "inactive: 76%"}
{"smiles": "CC(=O)c1ccc(Nc2ccc3cc(S(=O)(=O)N4CCCC4)ccc3n2)cc1", "survival": "inactive: 84%"}
{"smiles": "O=C(CCn1cnnn1)Nc1cc(C(F)(F)F)cc(C(F)(F)F)c1", "survival": "active: 69%"}
{"smiles": "CC(C)Oc1cccc(C2CC(=O)Nc3cc4c(cc32)OCO4)c1", "note": "(configuration not stated)", "survival": "inactive: 67%"}
{"smiles": "COc1ccc2c(c1)c1c(c(=O)n(-c3ccc(OC)c(OC)c3)c(=O)n1Cc1ccccc1F)n2C", "survival": "inactive: 91%"}
{"smiles": "CCS(=O)(=O)C(=C1NCCO1)S(=O)(=O)CC", "survival": "inactive: 89%"}
{"smiles": "COc1cc(NC(=O)CSc2nccn2C)cc(OC)c1OC", "survival": "inactive: 71%"}
{"smiles": "CC(C)CCn1nnc2sc(-c3ccccc3)cc2c1=O", "survival": "inactive: 57%"}
{"smiles": "O=C(NCCS(=O)(=O)N1CCN(c2ccc(F)cc2)CC1)c1cccc(C(F)(F)F)c1", "survival": "inactive: 90%"}
{"smiles": "Cc1ccc(Cl)cc1N1CCN(C(=O)CCCn2c(=O)[nH]c3ccc(Br)cc3c2=O)CC1", "survival": "active: 29%"}
{"smiles": "O=C(CNCc1ccco1)Nc1cccc(OC(F)(F)F)c1", "survival": "inactive: 99%"}
{"smiles": "CCc1ccccc1NC(=O)C1CCN(c2cnccn2)CC1", "survival": "inactive: 43%"}
{"smiles": "O=C(NCc1ccccc1Cl)c1ccc(Cn2c(SCc3ccccc3)nc3cccnc32)cc1", "survival": "inactive: 72%"}
{"smiles": "Cc1ccccc1Cn1c2ccccc2c2cnn(CC(=O)NCC(C)c3ccccc3)c(=O)c21", "note": "(configuration not stated)", "survival": "inactive: 79%"}
{"smiles": "CCc1ccccc1NC(=O)c1ccc2c(SCC(=O)O)c3c(nc2c1)CCC3", "survival": "inactive: 85%"}
{"smiles": "CSc1ccc(CCNC(=O)C(C)n2nc(C)c3sc4ccccc4c3c2=O)cc1", "note": "(configuration not stated)", "survival": "inactive: 52%"}
{"smiles": "CCOC(=O)C1CCN(C(=O)c2ccc(NC(=O)c3nsc4ccccc34)cc2)CC1", "survival": "inactive: 109%"}
{"smiles": "CS(=O)(=O)N(CC(=O)Nc1ccc2c(c1)OCCO2)c1ccccc1", "survival": "inactive: 103%"}
{"smiles": "COc1cc(OC)c(NC(=O)c2nn(-c3ccc(C)cc3)c(=O)c3c2c2ccccc2n3C)cc1Cl", "survival": "inactive: 97%"}
{"smiles": "O=C(Nc1cccc(C(=O)N2CCN(c3cccc(Cl)c3)CC2)c1)c1nsc2ccccc12", "survival": "inactive: 94%"}
{"smiles": "COc1ccc(OC)c(Nc2ncnc3c2nc2n3CCCC2)c1", "survival": "inactive: 78%"}
{"smiles": "COCCCn1c(=N)c(C(=O)NCc2cccnc2)cc2c(=O)n3cc(C)ccc3nc21", "survival": "inactive: 74%"}
{"smiles": "C=CCN(CC=C)C(=O)C(C)N1CCN(C2CCCCC2)CC1", "note": "(configuration not stated)", "survival": "inactive: 88%"}
{"smiles": "CCOc1ccc(NC(=O)c2nc3nc(C)cc(C(F)F)n3n2)cc1", "survival": "inactive: 60%"}
{"smiles": "CCc1nnc(SCc2ccc(OC)cc2)c2cc3sc(C)cc3n12", "survival": "inactive: 92%"}
{"smiles": "O=C(CCn1ccc2cc(S(=O)(=O)N3CCCC3)ccc21)NCc1cccc(Cl)c1", "survival": "active: 17%"}
{"smiles": "Cc1cc(C(=O)NCc2cccc(Br)c2)c2c(C)nn(-c3ccccc3)c2n1", "survival": "inactive: 108%"}
{"smiles": "CC(=O)N1c2ccc(S(=O)(=O)NCC3CCC(C(=O)Nc4ccc(C)c(C)c4)CC3)cc2CC1C", "note": "(configuration not stated)", "survival": "inactive: 98%"}
{"smiles": "CCn1cc(C(=O)NCCc2ccc(C)cc2)c(=O)c2cc(S(=O)(=O)N3CCc4ccccc4C3)ccc21", "survival": "inactive: 67%"}
{"smiles": "CC(C(=O)O)N1CCCC1", "note": "(configuration not stated)", "survival": "inactive: 94%"}
{"smiles": "O=C(Nc1c(-c2ccccc2)nc2ccccn12)c1ccccc1F", "survival": "inactive: 48%"}
